Data from patent publication US20240043566A1 (SUZHOU TRANSCENTA THERAPEUTICS, published 2024).

Target: human TGFβ1 (Sino Biological, 10804-HNAC) (human, UniProt P01137 in part)
Assay: cell-based or functional assay

Chain of UniProt P01137 (P01137 279-390 limits assumed): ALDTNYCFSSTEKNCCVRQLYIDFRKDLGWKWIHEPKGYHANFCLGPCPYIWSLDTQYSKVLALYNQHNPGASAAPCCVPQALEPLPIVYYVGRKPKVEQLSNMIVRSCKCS

IC50, TGFβ reporter HEK-293 cell line (luciferase), 10 ng/ml human TGFβ1: 0.35 nM
B1: AM4B6-hIgG1-TGFβRII′ (other)
heavy: QVQLVQSGAEVKKPGASVKVSCKASGYVFTDYYMNWVRQAPGQSLEWMGDINPNNAETLYNHKFKGRVTVTVDKSISTAYMELSRLRSDDTAVYYCVKWGDGPFAYWGQGTLVTVSS[here human IgG1 constant region without letters]GGGGSGGGGSGGGGSGGGGSGGAVKFPQLCKFCDVRFSTCDNQKSCMSNCSITSICEKPQEVCVAVWRKNDENITLETVCHDPKLPYHDFILEDAASPKCIMKEKKKPGETFFMCSCSSDECNDNIIFSEEYNTSNPD
light: DIQMTQSPSSLSASVGDRVTITCKASQNVGAAVAWYQQKPGKAPKLLIYSVSDRYTGVPSRFSGSGSGTDFTLTISSLQPEDIATYYCQQYSNYPTFGQGTKLEIKRTVAAPSVFIFPPSDEQLKSGTASVVCLLNNFYPREAKVQWKVDNALQSGNSQESVTEQDSKDSTYSLSSTLTLSKADYEKHKVYACEVTHQGLSSPVTKSFNRGEC
